# Results taken from PMC5700166.
# Only a part is listed here, and it is no random draw. The list includes weakly bound sequences.
# Legend:
# Assay in all cases: protein-binding microarray (PBM)
# Settings in all cases: PBM: ~300 nM protein, 6 mM HEPES pH 7.8, 80 mM KCl, 0.5 mM EDTA, 0.5 mM EGTA, 6% glycerol, 35 ng/ul poly-dIdC, 1% milk, 1 h, room temperature; Ap Aiptasia and Nv Nematostella (sea anemones) / Co Capsaspora / Aq Amphimedon (sponge) / Dm Drosophila / Hu human; RHD is the Rel homology domain; high values mean tight binding; most listed sequences are background and not binding sites; double strand, one strand shown
# [1] = biological target: T1, GST-Nv-NF-kB (Cys allele) (UniProt E5G601)
# T1 sequence: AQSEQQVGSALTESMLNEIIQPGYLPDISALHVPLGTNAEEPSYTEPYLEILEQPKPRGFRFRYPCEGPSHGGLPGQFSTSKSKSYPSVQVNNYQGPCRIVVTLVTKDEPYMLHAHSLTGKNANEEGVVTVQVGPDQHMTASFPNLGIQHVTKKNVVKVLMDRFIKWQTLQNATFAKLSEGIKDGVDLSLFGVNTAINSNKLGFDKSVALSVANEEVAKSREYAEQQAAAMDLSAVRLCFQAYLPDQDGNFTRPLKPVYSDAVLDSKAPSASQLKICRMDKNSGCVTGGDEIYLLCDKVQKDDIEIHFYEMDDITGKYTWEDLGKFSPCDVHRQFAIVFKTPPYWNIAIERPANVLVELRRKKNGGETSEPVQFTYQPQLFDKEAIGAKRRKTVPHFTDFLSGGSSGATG
# GST-Co-NF-kB = biological target: T2, GST-Co-NF-kB (UniProt F1ARL5)
# T2 sequence: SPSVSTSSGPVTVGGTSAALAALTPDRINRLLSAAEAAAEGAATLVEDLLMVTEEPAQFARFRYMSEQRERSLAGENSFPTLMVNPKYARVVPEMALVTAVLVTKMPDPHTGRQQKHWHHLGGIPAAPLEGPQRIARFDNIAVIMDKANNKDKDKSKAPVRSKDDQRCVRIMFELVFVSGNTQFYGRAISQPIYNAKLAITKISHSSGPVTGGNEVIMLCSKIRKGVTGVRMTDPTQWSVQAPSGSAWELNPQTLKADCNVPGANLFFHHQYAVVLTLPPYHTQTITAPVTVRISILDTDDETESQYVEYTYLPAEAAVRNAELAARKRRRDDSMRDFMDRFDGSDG
# GST-Aq-NF-kB = biological target: T3, GST-Aq-NF-kB (UniProt A9Y5G7)
# T3 sequence: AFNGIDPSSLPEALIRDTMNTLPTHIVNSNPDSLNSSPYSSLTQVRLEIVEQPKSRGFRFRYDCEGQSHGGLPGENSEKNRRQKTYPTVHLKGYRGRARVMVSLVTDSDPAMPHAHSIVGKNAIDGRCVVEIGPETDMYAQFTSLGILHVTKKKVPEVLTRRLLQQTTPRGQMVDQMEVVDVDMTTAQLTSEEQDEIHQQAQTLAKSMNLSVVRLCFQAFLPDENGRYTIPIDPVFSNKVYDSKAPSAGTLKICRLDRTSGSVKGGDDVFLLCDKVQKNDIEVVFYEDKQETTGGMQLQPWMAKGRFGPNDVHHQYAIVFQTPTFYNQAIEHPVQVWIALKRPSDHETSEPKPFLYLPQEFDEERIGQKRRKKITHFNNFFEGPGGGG
# GST-Dm-Relish = biological target: T4, GST-Dm-Relish (UniProt Q94527)
# T4 sequence: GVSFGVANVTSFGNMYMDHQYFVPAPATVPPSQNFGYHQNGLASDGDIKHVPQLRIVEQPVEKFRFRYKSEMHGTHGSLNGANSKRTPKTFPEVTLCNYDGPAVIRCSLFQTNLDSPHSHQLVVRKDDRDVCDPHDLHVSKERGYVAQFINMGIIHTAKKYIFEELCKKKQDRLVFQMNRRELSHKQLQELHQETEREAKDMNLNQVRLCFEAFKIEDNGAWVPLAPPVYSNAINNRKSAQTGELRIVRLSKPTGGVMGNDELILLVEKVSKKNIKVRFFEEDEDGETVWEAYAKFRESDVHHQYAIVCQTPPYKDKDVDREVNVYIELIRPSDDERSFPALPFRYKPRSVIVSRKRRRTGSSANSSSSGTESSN
Sequence,binding signal [1] [z-score],binding signal (GST-Co-NF-kB) [z-score],binding signal (GST-Aq-NF-kB) [z-score],binding signal (GST-Dm-Relish) [z-score]
CCGATTAACATCAGGATATACCCTGATGTTAATCGGGTCTTGATTCGCTTGACGCTGCTG,2.26,0.0477,4.83,–
CCGATTAACATCAGGGGCGCCCCTGATGTTAATCGGGTCTTGATTCGCTTGACGCTGCTG,5.37,3,8.59,–
CCGATTAACATCAGGAAAATACCTGATGTTAATCGGGTCTTGATTCGCTTGACGCTGCTG,2.3,-0.385,4.29,–
CCGATTAACATCAGGGCTCCCCCTGATGTTAATCGGGTCTTGATTCGCTTGACGCTGCTG,5.82,4.76,8.12,–
CCGATTAACATCAACTTTTCCCCTGATGTTAATCGGGTCTTGATTCGCTTGACGCTGCTG,7.19,9,5.09,–
CCGATTAACATCAAATCGGGAAATGATGTTAATCGGGTCTTGATTCGCTTGACGCTGCTG,3.49,2,1.61,0.283
CCGATTAACATCAGGGAATTAACTGATGTTAATCGGGTCTTGATTCGCTTGACGCTGCTG,4.33,2.63,5.19,–
CCGATTAACATCAGGGAGTACACTGATGTTAATCGGGTCTTGATTCGCTTGACGCTGCTG,0.904,1.03,1.84,1.58
CCGATTAACATCAGCCCCGGTGTTGATGTTAATCGGGTCTTGATTCGCTTGACGCTGCTG,0.893,–,2.37,-0.0198
CCGATTAACATCAGGGAATCAGATGATGTTAATCGGGTCTTGATTCGCTTGACGCTGCTG,1.61,–,1.84,0.457
CCGATTAACATCAACTATCCCCCTGATGTTAATCGGGTCTTGATTCGCTTGACGCTGCTG,4.03,–,4.04,2.98
CCGATTAACATCAAGTTTCCCCCTGATGTTAATCGGGTCTTGATTCGCTTGACGCTGCTG,8.22,11.4,6.51,4.83
CCGATTAACATCAACTTGGGAAATGATGTTAATCGGGTCTTGATTCGCTTGACGCTGCTG,2.47,–,1.15,0.789
CCGATTAACATCACTACCCCGGATGATGTTAATCGGGTCTTGATTCGCTTGACGCTGCTG,0.464,–,0.981,0.827
CCGATTAACATCATGTTTGCGGGTGATGTTAATCGGGTCTTGATTCGCTTGACGCTGCTG,-0.0901,1.02,0.335,0.472
CCGATTAACATCAGGGGAACGCATGATGTTAATCGGGTCTTGATTCGCTTGACGCTGCTG,5.4,–,3.75,2.68
CCGATTAACATCAGGGGAGAAAATGATGTTAATCGGGTCTTGATTCGCTTGACGCTGCTG,5.5,–,3.89,2.26
CCGATTAACATCAAAAGAGTCCCTGATGTTAATCGGGTCTTGATTCGCTTGACGCTGCTG,5.99,1.5,5.91,5.32
CCGATTAACATCAGGGAAACTTATGATGTTAATCGGGTCTTGATTCGCTTGACGCTGCTG,6.28,–,6.43,2.25
CCGATTAACATCAATATATTCCCTGATGTTAATCGGGTCTTGATTCGCTTGACGCTGCTG,4.64,–,3.52,2.1
CCGATTAACATCAAGGGGATTTATGATGTTAATCGGGTCTTGATTCGCTTGACGCTGCTG,9.15,3.44,6.25,8.3
CCGATTAACATCACCCCGCATGCTGATGTTAATCGGGTCTTGATTCGCTTGACGCTGCTG,0.374,1.97,0.987,0.781
CCGATTAACATCAGAATTCTCCCTGATGTTAATCGGGTCTTGATTCGCTTGACGCTGCTG,4.1,–,4.02,0.902
CCGATTAACATCAGGAATCCCAATGATGTTAATCGGGTCTTGATTCGCTTGACGCTGCTG,0.893,0.928,1.48,7.14
CCGATTAACATCACTAGGCGGGATGATGTTAATCGGGTCTTGATTCGCTTGACGCTGCTG,-0.412,–,0.567,0.046
CCGATTAACATCAGTATGGGAAATGATGTTAATCGGGTCTTGATTCGCTTGACGCTGCTG,2.39,–,1.79,0.377
CCGATTAACATCAAAAAGCCCCCTGATGTTAATCGGGTCTTGATTCGCTTGACGCTGCTG,9.31,3.86,8.57,9.41
CCGATTAACATCAGGGAAATATATGATGTTAATCGGGTCTTGATTCGCTTGACGCTGCTG,5.66,–,6.09,1.94
CCGATTAACATCAGCTAGTCCCTTGATGTTAATCGGGTCTTGATTCGCTTGACGCTGCTG,3.63,0.223,3.06,0.0367
